Data reported in the supplement of paper PMC10126150.
Values marked as one replicate rest on one cluster of the flow cell; about a third of the high ones do not repeat.
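Note: ATP exposure 15 min at 22 °C before imaging.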

These sequences were tested on ATP (assay: switch fluorescence ratio, 500 uM ATP over buffer (Cy3 cluster intensity, sum of 5 cycles each) (fold (ratio)); higher = stronger signal-on switching upon ATP binding; sequences stand for … in TCGTCGGCAGCGTCAGATGTGTATAAGAGACAGTTTTTTTTTTTTTTTTTTTTTTTTT…TC). Conditions: aptamer strand: ATP DNA aptamer (quencher-CACCTGGGGGAGTATTGCGGAGGAAGG + anchor), 100 nM annealed; ATP concentration: 500 uM; one replicate.
Outline: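 Cy3-labelled switching-strand clusters on a modified Illumina MiSeq flow-cell were annealed to 100 nM quencher-labelled ATP aptamer, imaged in selection buffer, then imaged after 15 min with 500 uM ATP at 22 °C. Five buffer/ATP cycles ran, with NaOH stripping and re-annealing between them. The fluorescence ratio is summed target-cycle over summed buffer-cycle Cy3 intensity per cluster, averaged per switch-domain sequence. Clusters outside 100-1000 RFU were excluded.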
In the case of GAGGTAAATG, the switch fluorescence ratio is reported as 1.03. In the case of GTCATGCAGT, the switch fluorescence ratio is reported as 1.01. Work on ATTGTTAGGC yielded a switch fluorescence ratio of 0.997. Work on ATCAGAGTAT yielded a switch fluorescence ratio of 1.01. AACGTGAGCT showed a switch fluorescence ratio of 1.06. Sequence AGTCCTCTCG has a switch fluorescence ratio of 1.16. In the case of GCGGGGCGT, the switch fluorescence ratio is reported as 0.973. AGAAAAGATC was tested, and the switch fluorescence ratio was 1.02. For GCTGCATAA, the switch fluorescence ratio was 1.02. Work on CACTAGGACA yielded a switch fluorescence ratio of 0.925. Work on TTACGGGGCG yielded a switch fluorescence ratio of 1.03. With AATCGCTAAG the switch fluorescence ratio was 0.986. GCGGACAACC showed a switch fluorescence ratio of 1.06. Sequence CGTAGTAACC has a switch fluorescence ratio of 1.44. In the case of AGATACTGGT, the switch fluorescence ratio is reported as 1.03. GGGCTGGGCC gave a switch fluorescence ratio of 0.952. GTCATTGAC showed a switch fluorescence ratio of 1.04. Work on TTTGTGCGTA yielded a switch fluorescence ratio of 1.08. Work on CATGGGCCCG yielded a switch fluorescence ratio of 1.07. Work on GTTTCCTGCT yielded a switch fluorescence ratio of 0.965. GCATAATTAG showed a switch fluorescence ratio of 1.02. ACGTCTACGA showed a switch fluorescence ratio of 1.15. CGTGGACCAG was tested, and the switch fluorescence ratio was 0.982. Sequence GGAGGGTCTG has a switch fluorescence ratio of 0.95. With GGCACCTTTA the switch fluorescence ratio was 1.03. With GGGGTGCGC the switch fluorescence ratio was 1. For GGCGTTCGAC, the switch fluorescence ratio was 1.02. Sequence TTTAGGAATA has a switch fluorescence ratio of 1.06. CCTGTAATAT showed a switch fluorescence ratio of 2.82. With AGTCTTCTC the switch fluorescence ratio was 1.1. GACCCTAGGA gave a switch fluorescence ratio of 1.04. TCGTGTGGTA gave a switch fluorescence ratio of 0.967. Work on AACTAAAGGT yielded a switch fluorescence ratio of 1.02. CTCGGAAGCT was tested, and the switch fluorescence ratio was 1.04. CCGGAATCGA gave a switch fluorescence ratio of 1.22. For TAAATTTCG, the switch fluorescence ratio was 1.08. TAAAGGAGGC showed a switch fluorescence ratio of 1.06. Sequence AGTGCACAAT has a switch fluorescence ratio of 0.981. Sequence GGAAACCCCC has a switch fluorescence ratio of 1.38. Work on AATTGTTCAG yielded a switch fluorescence ratio of 1.03. TATTTAAGTC was tested, and the switch fluorescence ratio was 1.04. Work on TCTGCGGTGC yielded a switch fluorescence ratio of 1.34. TTTAATGACA was tested, and the switch fluorescence ratio was 1.04. Sequence CCTTGAGGCG has a switch fluorescence ratio of 1.05. Sequence CACGGACGTA has a switch fluorescence ratio of 1.14. In the case of TATAAAGAAG, the switch fluorescence ratio is reported as 1.03. CGGGATGACC was tested, and the switch fluorescence ratio was 0.996. GGATACCTGG gave a switch fluorescence ratio of 1.02. AAAGTAGCGT gave a switch fluorescence ratio of 1.04. Work on GCGGTATTAG yielded a switch fluorescence ratio of 0.963. With AAACGAAGAG the switch fluorescence ratio was 1.01. Work on GTTAGTACGT yielded a switch fluorescence ratio of 1.01. For CTACCAAGTG, the switch fluorescence ratio was 1.04. CGGAGTTTG gave a switch fluorescence ratio of 0.991. ATGACTCACG gave a switch fluorescence ratio of 1.05. In the case of GGATAATCGC, the switch fluorescence ratio is reported as 1.01. ATAGAGCGGA was tested, and the switch fluorescence ratio was 1.01. With AATTATTGCG the switch fluorescence ratio was 1. With GAGGGGCCGT the switch fluorescence ratio was 0.994. CTATCCATTT gave a switch fluorescence ratio of 0.971. For GCTGTATTAG, the switch fluorescence ratio was 0.97. For TCGTCTGGGG, the switch fluorescence ratio was 0.996. TGAGAGGCGG showed a switch fluorescence ratio of 1. TGACTATTT gave a switch fluorescence ratio of 0.978. Sequence TCAAATACCT has a switch fluorescence ratio of 1.27. With ACTGTGTGAA the switch fluorescence ratio was 1.05. AGCCATTGAT showed a switch fluorescence ratio of 0.957. With TTCCAAGTTG the switch fluorescence ratio was 1.01. For TGAGTTTCAA, the switch fluorescence ratio was 0.951. TGCCATTAGA gave a switch fluorescence ratio of 0.996. GCAGGGCT was tested, and the switch fluorescence ratio was 1.03. In the case of CATTACCCCT, the switch fluorescence ratio is reported as 1.15. TTGACATAGC showed a switch fluorescence ratio of 1.04. For TCCCGCAAGT, the switch fluorescence ratio was 2.28. Sequence CTGGCTTGTC has a switch fluorescence ratio of 1.08. TTTTGGACC gave a switch fluorescence ratio of 1.07. Work on TTAACTCACA yielded a switch fluorescence ratio of 1.21. TAAACGGAAC gave a switch fluorescence ratio of 1.14. In the case of TACTTGCCCT, the switch fluorescence ratio is reported as 1.06. TTATGCTAAC showed a switch fluorescence ratio of 2.56. Work on TGATTTGTT yielded a switch fluorescence ratio of 0.986. TGAATTACAT gave a switch fluorescence ratio of 0.999. With GCAATTGGCA the switch fluorescence ratio was 1.01. Sequence TTCCTGAAC has a switch fluorescence ratio of 1.26. Sequence TACTATTCTT has a switch fluorescence ratio of 1.07. AGACGTGGAG was tested, and the switch fluorescence ratio was 0.986. Sequence ACAAGACTGA has a switch fluorescence ratio of 1.09. GAATCCGGTC gave a switch fluorescence ratio of 1.06. For GGCCCCGTCC, the switch fluorescence ratio was 1.08. In the case of AGAATACCGA, the switch fluorescence ratio is reported as 1.16. Sequence TTGGATAGAT has a switch fluorescence ratio of 0.974. GGGCTAAGAC was tested, and the switch fluorescence ratio was 1.13. CTTATTCGTG showed a switch fluorescence ratio of 0.989. Sequence CGAGTTTCCC has a switch fluorescence ratio of 0.988. In the case of GATTTGCACT, the switch fluorescence ratio is reported as 0.998. TTGGAGACTT gave a switch fluorescence ratio of 0.981. Work on CTCAATATGT yielded a switch fluorescence ratio of 1.04. With CGTCCAAAAT the switch fluorescence ratio was 3.38. Work on GGAGGGTTCT yielded a switch fluorescence ratio of 1.05. In the case of ACCGTTGGAG, the switch fluorescence ratio is reported as 0.993. GACCCGGCCT gave a switch fluorescence ratio of 1.05.
